{"source": "PubChem BioAssay AID485344", "about": "(National Center for Advancing Translational Sciences (NCATS), 2010)", "note": "Screen size: about 340,000 compounds; about 6,900 (2%) were called active. Cut-off read from the data, not from the text of the source: active = inhibition above about 30%; inactive = below that, where a call was filed. The entries are a selection whose mix differs from that of the whole data set. The source gives no active or inactive call for entries shown without one.", "data": [{"molecular_target": "D(2) dopamine receptor (Homo sapiens) (UniProt P14416)", "sequence (P14416 whole entry, looked up)": "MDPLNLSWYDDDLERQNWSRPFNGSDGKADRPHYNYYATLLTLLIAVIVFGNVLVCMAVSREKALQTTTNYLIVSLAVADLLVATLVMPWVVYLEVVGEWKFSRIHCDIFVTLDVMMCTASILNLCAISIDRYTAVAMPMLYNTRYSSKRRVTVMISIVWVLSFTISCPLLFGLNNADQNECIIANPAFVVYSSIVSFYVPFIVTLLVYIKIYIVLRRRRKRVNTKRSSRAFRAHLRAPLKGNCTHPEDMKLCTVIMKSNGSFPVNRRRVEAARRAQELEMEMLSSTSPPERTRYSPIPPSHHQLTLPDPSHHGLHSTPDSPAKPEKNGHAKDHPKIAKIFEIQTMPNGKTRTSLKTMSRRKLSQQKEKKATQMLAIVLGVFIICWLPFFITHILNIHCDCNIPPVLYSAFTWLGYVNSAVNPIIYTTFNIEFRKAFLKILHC", "assay": "HTS Assay for Allosteric Antagonists of the Human D2 Dopamine Receptor: Primary Screen for Antagonists; note: 0% is about no effect", "conditions": "HEK293 TREx D2 cells, calcium flux, dopamine EC80; at 10 µM; stronger effect = higher value", "in_short": "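Measurement of antagonist activity uses fluorescent calcium dye in inducible HEK293 T-REx D2 cells: 10 s baseline, compound addition with 180 s read, EC80 dopamine addition with a further 180 s read.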", "values": [{"smiles": "COc1ccccc1CNC(=O)CCn1c(=O)c2ccccc2n(CC(=O)Nc2cccc(Cl)c2)c1=O", "inhibition": "0.651%"}, {"smiles": "Cc1ccc(S(=O)(=O)Cc2ccc(C(=O)NCCCN3CCCC3=O)o2)cc1", "inhibition": "active: 34%"}, {"smiles": "Cc1ccc(-n2ncc(C(=O)N3CCN(c4cccc(C)c4)C(C)C3)c2C2CCN(C(=O)OC(C)(C)C)CC2)cc1", "note": "(stereo unspecified)", "inhibition": "12.3%"}, {"smiles": "Cc1nn(CCCC(=O)NCc2ccc(F)cc2)c(=O)c2c1sc1ccccc12", "inhibition": "4.7%"}, {"smiles": "CCOc1ccc(N2CC(c3nc4ccccc4n3Cc3cccc(Cl)c3)CC2=O)cc1", "note": "(stereo unspecified)", "inhibition": "-5.2%"}, {"smiles": "C/C(=N\\NC(=S)NCC(C)(C)C)c1cc(F)cc(F)c1O", "inhibition": "active: 36.7%"}, {"smiles": "Cc1cc(C)cc(C(=O)Nc2ccc(-c3nc4ncccc4o3)cc2)c1", "inhibition": "8.05%"}, {"smiles": "CCOc1ccc2nc(NC(=O)c3cc(=O)c4ccc(C)cc4o3)sc2c1", "inhibition": "12.4%"}, {"smiles": "CCN1CCSc2ccc(C(=O)NC(C)c3ccccc3)cc21", "note": "(stereo unspecified)", "inhibition": "12.6%"}, {"smiles": "O=C(NCc1ccc(Cl)cc1)c1cc(S(=O)(=O)N2CCCCC2)c[nH]1", "inhibition": "9.44%"}, {"smiles": "Cc1c2cnn(CC(=O)N3CCN(c4ccc(F)cc4)CC3)c(=O)c2c(C)n1Cc1ccc(F)cc1", "inhibition": "1.06%"}, {"smiles": "Cc1cc(NS(=O)(=O)c2ccc(NC(=O)COc3ccc(Br)cc3C)cc2)no1", "inhibition": "-6.38%"}, {"smiles": "CCCCc1nn2c(=O)cc(COC(=O)c3ccccc3NC(=O)C(C)(C)C)nc2s1", "inhibition": "8.57%"}, {"smiles": "Cc1[nH]c(=O)[nH]c(=O)c1C1N2CC3(C(C)C)CN1CC(C(C)C)(C2)C3=O", "note": "(stereo unspecified)", "inhibition": "6.44%"}, {"smiles": "Cc1ccc(N2CCn3c2nc2c3c(=O)n(CCc3ccccc3)c(=O)n2C)cc1C", "inhibition": "16.4%"}, {"smiles": "CCC1CCCCN1C(=O)CSc1nc2c(cnn2-c2ccc(C)cc2)c(=O)[nH]1", "note": "(stereo unspecified)", "inhibition": "active: 33.2%"}, {"smiles": "CCOC(=O)c1ccc(NC(=O)CN2C(=O)c3cccnc3Oc3ccc(Cl)cc32)cc1", "inhibition": "-5.72%"}, {"smiles": "CCOc1ccc(NC(=O)N2CCOc3ccccc32)cc1", "inhibition": "-19.7%"}, {"smiles": "N#Cc1ccc(-c2cccs2)nc1SCc1ccc(Cl)cc1Cl", "inhibition": "0.628%"}, {"smiles": "Cc1ccnc(NC(c2ccccc2F)c2ccc3cccnc3c2O)c1", "note": "(stereo unspecified)", "inhibition": "18%"}, {"smiles": "CCc1ccccc1NC(=O)CSc1nnc(-c2nonc2NC(C)=O)n1C", "inhibition": "17.5%"}, {"smiles": "CCCOc1ccccc1Cn1c(=O)sc2ccccc21", "inhibition": "13.5%"}, {"smiles": "O=C(NNc1ncnc2c1cnn2-c1ccccc1)c1cccc(Cl)c1", "inhibition": "15.6%"}, {"smiles": "COc1ccc(Cl)c(Cn2c(NCCN)nc3c2c(=O)n(C)c(=O)n3C)c1", "inhibition": "0.0664%"}, {"smiles": "CCCCN(CC)CCCNC(=S)Nc1ccc2nc(N3CCN(CC)CC3)cc(C)c2c1", "inhibition": "active: 41.4%"}, {"smiles": "COc1ccc(C(=O)NCc2nnnn2-c2ccc(C)c(C)c2)cc1", "inhibition": "1.54%"}, {"smiles": "Cc1ccc(OCCSc2nc3ccccc3n2CC(=O)N2CCOCC2)c(C)c1", "inhibition": "10.3%"}, {"smiles": "CCOc1ccc(NC(=O)CN2C(=O)COc3ccc(S(=O)(=O)Nc4ccccc4)cc32)cc1", "inhibition": "-12.7%"}, {"smiles": "Cc1ccc(Cl)cc1NC(=O)Cn1nc2c(cc1=O)CC(C)CC2", "note": "(stereo unspecified)", "inhibition": "-23.6%"}, {"smiles": "CCOC(=O)C1CCCN(Cc2ccc(OC)c(OCc3ccccc3)c2)C1", "note": "(stereo unspecified)", "inhibition": "active: 45.4%"}, {"smiles": "COc1ccc(C(=O)Nc2ccc3nc4n(c(=O)c3c2)CCCCC4)cc1OC", "inhibition": "-9.18%"}, {"smiles": "CC(C)OCCCNC(=O)CCCn1c(SCC(=O)c2ccc(Br)cc2)nc2c(sc3ccccc32)c1=O", "inhibition": "1.42%"}, {"smiles": "COc1ccc(CNC(=O)c2cnn3c(C)c(Cc4ccc(F)cc4)c(C)nc23)cc1", "inhibition": "3.39%"}, {"smiles": "O=C(CC1(O)C(=O)N(CN2CCOCC2)c2ccccc21)c1ccccc1", "note": "(stereo unspecified)", "inhibition": "active: 30.3%"}, {"smiles": "Cc1cc(C)c(NC(=O)Cn2c(=O)n(CCCCC(=O)NCc3ccccc3Cl)c(=O)c3ccccc32)c(C)c1", "inhibition": "10.5%"}, {"smiles": "Cc1cc(Nc2cccc(Cl)c2C)n2nc(Cc3ccccc3)nc2n1", "inhibition": "-24.9%"}, {"smiles": "COc1ccc(CNC(=O)CCCn2c(SCC(N)=O)nc3cc4c(cc3c2=O)OCO4)cc1", "inhibition": "-5.21%"}, {"smiles": "COc1cc(Cl)c(C)cc1NC(=O)c1cn(CC(C)C)c(=O)c2cc(OC)c(OC)cc12", "inhibition": "-0.543%"}, {"smiles": "CCN(CC)C(=O)CSc1nc2cc3c(cc2c(=O)n1Cc1ccc(C(=O)NCCc2ccc(OC)c(OC)c2)cc1)OCO3", "inhibition": "-1.06%"}, {"smiles": "CCOc1ccccc1NC(=O)Cn1c(=O)n(Cc2ccccc2)c(=O)c2c(C)c(C(=O)N(C)C)sc21", "inhibition": "4.33%"}, {"smiles": "Cc1ccc(-c2cn3c(n2)sc2cc(C(=O)N4CCCCC4)ccc23)cc1", "inhibition": "-15.9%"}, {"smiles": "Cc1ccc(NC(=O)NCc2cccn2Cc2ccccc2)cc1F", "inhibition": "15.5%"}, {"smiles": "COC(=O)C(C)Sc1nc2c([nH]c3ccccc32)c(=O)n1-c1ccc(OC)cc1", "note": "(stereo unspecified)", "inhibition": "14.6%"}, {"smiles": "O=C(Nc1ccc2nc(SCC(=O)N3CCCC3)sc2c1)c1ccc(F)cc1", "inhibition": "4.34%"}, {"smiles": "O=C1C(Cl)=C(NCc2cccnc2)C(=O)c2ccccc21", "inhibition": "active: 33.7%"}, {"smiles": "CC(=O)Nc1ccc(C2=NNC(=Nc3ccc(S(=O)(=O)N4CCOCC4)cc3)SC2)cc1", "inhibition": "active: 42.7%"}, {"smiles": "CCOc1cc(C2c3c(oc4ccccc4c3=O)C(=O)N2Cc2ccc3c(c2)OCO3)ccc1O", "note": "(stereo unspecified)", "inhibition": "13.4%"}, {"smiles": "Cc1ccc(-n2ncc(C(=O)Nc3ccc(C)c(F)c3)c2C2CCN(C(=O)OC(C)(C)C)CC2)cc1C", "inhibition": "16.9%"}, {"smiles": "Cc1ccc(CNC(=O)CCCCn2c(=O)c3ccccc3n(Cc3ccc(Cl)cc3)c2=O)cc1", "inhibition": "-15.7%"}, {"smiles": "Cc1nc2sc(C(=O)NCc3ccc(Cl)cc3)c(NC(=O)c3ccccc3)c2c(C)c1C", "inhibition": "1.94%"}, {"smiles": "Cc1ccccc1NC(=O)c1nc(-c2ccncc2)no1", "inhibition": "12.9%"}, {"smiles": "CCC(C(=O)OCc1cc(=O)n2nc(CCOC)sc2n1)c1ccccc1", "note": "(stereo unspecified)", "inhibition": "-2.26%"}, {"smiles": "Cc1ccc(NC(=O)Cn2c(CCC(=O)O)ccc2-c2cccs2)cc1", "inhibition": "11.6%"}, {"smiles": "CCOc1cccc(C2c3c(oc4ccccc4c3=O)C(=O)N2c2nc(C)c(C(=O)OC)s2)c1", "note": "(stereo unspecified)", "inhibition": "8.58%"}, {"smiles": "Cc1ccc2occ(CC(=O)Nc3nnc(C(C)C)s3)c2c1", "inhibition": "9.82%"}, {"smiles": "O=C(Nc1nnc(S(=O)(=O)N2CCCc3ccccc32)s1)c1ccccc1Br", "inhibition": "-0.766%"}, {"smiles": "COc1ccc(CNC(=O)c2ccc3c(c2)N(Cc2ccccc2)C(=O)c2ccccc2S3(=O)=O)cc1", "inhibition": "1.33%"}, {"smiles": "COc1ccc(-c2cc3nc(C4CCN(C(=O)OC(C)(C)C)CC4)c(C(=O)Nc4cc(Cl)cc(Cl)c4)cn3n2)cc1", "inhibition": "12.5%"}, {"smiles": "CCOc1ccccc1N(C)C(=O)c1nn(-c2ccc(C)cc2)c(=O)c2c1c1ccccc1n2C", "inhibition": "5.35%"}, {"smiles": "CCOc1ccccc1-c1nnc(SCc2ccc(Cl)cc2)o1", "inhibition": "0.485%"}, {"smiles": "COCCCNC(=O)c1cc(-c2cccnc2)nc2ccccc12", "inhibition": "-12.9%"}, {"smiles": "COc1ccc(OC)c(NC(=O)c2csnn2)c1", "inhibition": "8.41%"}, {"smiles": "CC1=C(C(=O)Nc2ccc(C)cc2C)C(c2sccc2C)n2ncnc2N1", "note": "(stereo unspecified)", "inhibition": "16.4%"}, {"smiles": "COc1ccc(-n2c(SCC(=O)N3CCC(C)CC3)nc3c([nH]c4ccccc43)c2=O)cc1", "inhibition": "9.9%"}, {"smiles": "CCCN(CCC)C(=O)Cn1c(=O)n(Cc2ccc(C(=O)NCCc3ccc(OC)c(OC)c3)cc2)c(=O)c2ccccc21", "inhibition": "12.1%"}, {"smiles": "COCCNC(=O)c1ccc(Cn2c(SCC(=O)NC(C)C)nc3ccccc3c2=O)cc1", "inhibition": "5.8%"}, {"smiles": "CCCN(C(=O)c1cc2c(Cl)nc3ccccc3c2s1)c1cccc(C)c1", "inhibition": "10.1%"}, {"smiles": "CCOc1cc(CNc2ccc(O)cc2)cc(Br)c1OCc1ccccc1", "inhibition": "-12.1%"}, {"smiles": "Cc1ccc(OCCn2c(-c3ccc(Cl)cc3)nc3ccccc3c2=O)c(C)c1", "inhibition": "17.9%"}, {"smiles": "O=C(CNC(=O)c1cccc(-n2cnnn2)c1)Nc1ccc(F)c(F)c1", "inhibition": "active: 37.8%"}, {"smiles": "Cc1ccccc1CNC(=O)c1ccc(-n2c(C)cc3c2CCCC3)cc1", "inhibition": "-2.17%"}, {"smiles": "Cc1ccc(C)c(Cn2nc3c4ccccc4n(Cc4ccccc4)cc-3c2=O)c1", "inhibition": "active: 30.4%"}, {"smiles": "COc1ccccc1CNC(=O)C1CCN(Cc2nc(-c3ccc(OC)c(OC)c3)oc2C)CC1", "inhibition": "7.51%"}, {"smiles": "COc1cccc(-c2nnc3n(Cc4ccc(F)cc4)c(=O)c4ccccc4n23)c1", "inhibition": "15.1%"}, {"smiles": "COc1ccc(CCNC(=O)NCc2noc3ccccc23)c(OC)c1", "inhibition": "5.98%"}, {"smiles": "CC1=C(C(=O)Nc2ccc(C)cc2C)C(c2ccccc2C)n2ncnc2N1", "note": "(stereo unspecified)", "inhibition": "-9.39%"}, {"smiles": "CN(C)c1ccc(C(CNS(=O)(=O)c2ccc(Cl)cc2)N2CCCC2)cc1", "note": "(stereo unspecified)", "inhibition": "-23.5%"}, {"smiles": "Cc1ccc(-n2cccn2)c(CN2CCCC(C(=O)c3sccc3C)C2)c1", "note": "(stereo unspecified)", "inhibition": "active: 72.6%"}, {"smiles": "COc1cc(C(=O)NCC(c2cccnc2)N2CCN(c3ccc(F)cc3)CC2)cc(OC)c1OC", "note": "(stereo unspecified)", "inhibition": "7.5%"}, {"smiles": "Cc1cccc(-c2nc3c(C#N)c[nH]n3c2NC2CCCCC2)c1", "inhibition": "6.08%"}, {"smiles": "Cc1ccc(-c2noc(CN(C3CCCCC3)S(=O)(=O)c3ccc(C)cc3)n2)cc1", "inhibition": "-10.2%"}, {"smiles": "COc1cc(NC(=O)c2noc3c2CCc2ccccc2-3)cc(OC)c1OC", "inhibition": "11.1%"}, {"smiles": "Cc1nn(-c2ccc3nncn3n2)c(C)c1CCC(=O)Nc1ccc(OC(F)(F)F)cc1", "inhibition": "0.485%"}, {"smiles": "Cc1cc(C)c(/C=C(\\C#N)C(N)=S)c(C)c1", "inhibition": "active: 84%"}, {"smiles": "COc1ccc(Br)cc1CNC(=O)CCCn1c(=O)c2cccn2c2ccccc21", "inhibition": "20.9%"}, {"smiles": "CCOCC(=O)Nc1nnc(COC)s1", "inhibition": "active: 31.1%"}, {"smiles": "O=C(Nc1ccc(Cl)cc1)C1CCN(c2nc3ccccc3n3cccc23)CC1", "inhibition": "-0.526%"}, {"smiles": "CC(C)(C)OC(=O)N1CCC(c2c(C(=O)NCc3ccc4c(c3)OCO4)cnn2-c2ccc(F)cc2F)CC1", "inhibition": "-0.0982%"}, {"smiles": "CCC(Oc1ccccc1F)C(=O)Nc1c(C(=O)c2ccccc2)oc2ccccc12", "note": "(stereo unspecified)", "inhibition": "-11%"}, {"smiles": "CCCCN(C)CCNC(=O)c1cc(-c2cccnc2)nc2ccc(S(=O)(=O)N3CCC(C)CC3)cc12", "inhibition": "10.5%"}, {"smiles": "O=C(c1ccccc1)N1CCCCC(Cl)C1=O", "note": "(stereo unspecified)", "inhibition": "active: 31.1%"}, {"smiles": "Cc1ccn2c(c1)nc(=O)c1cc(S(=O)(=O)N3CCC(C)CC3)c(Cl)cc12", "inhibition": "8.44%"}, {"smiles": "CN(Cc1ccccc1)c1nc(-c2ccc(F)cc2)cc(C(F)(F)F)n1", "inhibition": "13.8%"}, {"smiles": "O=C(COc1ccccc1F)Nc1ccc(C(=O)OCc2cc(=O)n3nc(C4CC4)sc3n2)cc1", "inhibition": "1.25%"}, {"smiles": "Cc1ccc(NC(=O)CCSCCc2ccccn2)cc1", "inhibition": "-20.1%"}, {"smiles": "CCc1ccc(-n2c(C)nnc2SCc2nc(-c3ccc(OC)cc3)no2)cc1", "inhibition": "7.85%"}]}]}
